Measured values taken from patent US8486697B2, “Inducing cell death by inhibiting adaptive heat shock response” (Incuron, LLC, priority 2008, dated 2013).

Experiments:
HSF1 [1] = type: cell-based; settings: 0.1 μM Bortezomib or 1 μM 17-DMAG alone
HeLa cells [2] = assay: Immunoblotting of apoptosis-specific cleavage of keratin 18 and PARP in HeLa cells; type: cell-based; settings: for caspase-mediated protein cleavage (K18, PARP), drugs used alone (FIG. 12C, D): single drug
Excerpt: Whether induction of apoptosis played a role in the impact of the drug treatments on the number of viable cells was investigated. Apoptosis was monitored by the appearance of caspase-specific cleavage products of keratin 18 and PARP.
Detection reagent (ECL) was from Perkin Elmer (Shelton, Conn.).

MCA205 fibrosarcoma = assay: In vivo assay for tumor growth, MCA205 fibrosarcoma; parameters: species or system C57BL/6 mice; settings: intra-tumor injection, 1.25 mg QC or 25 μg 17-DMAG
Protocol: (§1) MCA205 and B-16 cells were detached from plastic Petri dishes using 0.5% Trypsin-EDTA, washed and resuspended in sterile PBS. Cells were injected intra-dermally into the shaved abdominal area of C57BL/6 mice (3×10^5 cells in a single injection/mouse). Tumors were measured in two dimensions and tumor volume was calculated according to the formula: […]. On day 8 after implantation, tumors were typically ˜50 mm^3 in size. Tumor-bearing mice were divided into four groups of five animals each and began receiving intra-tumor drug injections on day 9. The control group received PBS injections on days 9, 10, 11, and 12. Mice in group 2 were injected with 1.25 mg QC in PBS on days 9 and 10. Mice in group 3 received 25 μg 17-DMAG in PBS on days 9, 10, 11, and 12. Mice in group 4 were injected with 1.25 mg QC+25 μg 17-DMAG on days 9 and 10, and 25 μg 17-DMAG on days 11 and 12. Only two injections of QC were given, because this drug is stable inside of cells. It may be detected in cells as long as 72 h after treatment and the change of medium. Tumors were measured every 2 days after drugs injections for 24 days. Animals with tumors volume 500 mm3 and larger were euthanized.

B-16 melanoma = assay: In vivo assay for tumor growth, B-16 melanoma; parameters: species or system C57BL/6 mice; settings: intra-tumor injection, 1.25 mg QC or 25 μg 17-DMAG
Protocol: as §1

HSF1 [3] = assay: Electrophoretic mobility shift assay (EMSA) of HSF1 DNA binding activity in HeLa extracts; type: cell-based; settings: 5 μM MG132 or 1 μM 17-DMAG, 4 h, cytoplasmic and nuclear extracts
Excerpt: Activation of HSF1-mediated transcription requires release of HSF1 from its complex with hsp90 in the cytoplasm. This is followed by formation of HSF1 homodimers and homotrimers that translocate into the nucleus and bind to specific HSF1 recognition sites within the promoters of heat shock-inducible genes. The effect of QC and 9AA on this process was studied in order to define the point at which these compounds act to inhibit HSF1 function. To assess the intracellular localization and DNA binding capacity of HSF1 complexes, electrophoretic mobility shift assays (EMSA) were performed using protein extracts purified from the cytoplasm or nuclei of cells subjected to proteotoxic stress alone or in combination with QC or 9AA.
HSF1 DNA binding activity was detected using EMSA. Briefly, cytoplasmic and nuclear protein extracts were purified using the Digman protocol from control HeLa cells and HeLa cells treated with MG132 or 17-DMAG alone, or in combination with QC or 9AA. 10 μg of protein extracts were analyzed with a ^32P-labeled double-stranded oligonucleotide (5′ TCG-AGC-TAG-AAG-CTT-CTA-GAA-GCT-TCT-AGC 3′) (SEQ ID NO: 4) specific for HSF1 binding. For the competition assay, a 50× excess of unlabeled oligonucleotides was added to protein extracts together with ^32P-labeled double-stranded oligonucleotides. […]

MCA205 tumors = assay: hsp70 induction in MCA205 tumors after intra-tumor injection; type: in vivo, C57BL/6 mice; settings: single intra-tumor injection, 5 h
HeLa cells [4] = assay: Cell viability assay (methylene blue) in HeLa cells; type: cell-based; settings: 17-DMAG 1 μM or bortezomib 0.1 μM alone
Protocol: To determine the cytotoxicity of drugs and drug combinations, a cell viability assay was used. […] Cells were collected by trypsinization and a 1:50 dilution was seeded in a 6-well plate. […] Methylene blue was extracted by 0.1M HCl and its absorbance was measured at 560 nm.

hsp70 (inducible form) = assay: Western immunoblotting of inducible hsp70 in HeLa cells under proteotoxic stress; settings: MG132-treated HeLa, 0.5 μM bafilomycin

Row | Structure (SMILES) | caspase-mediated protein cleavage (K18, PARP), drugs used alone (FIG. 12C, D) (HeLa cells [2]) | HSF1 DNA binding activity, stress inducer alone (FIG. 11A, 11B) (HSF1 [3]) | toxicity of stress inducer alone (HeLa cells [4]) | other results
1 | CO[C@H]1/C=C\C=C(/C)C(=O)NC2=CC(=O)C(NCCN(C)C)=C(C[C@@H](C)C[C@H](OC)[C@H](O)[C@@H](C)/C=C(\C)[C@@H]1OC(N)=O)C2=O [17-DMAG] | barely detectable | led to activation of specific HSF1 DNA binding activity | practically non-toxic | HSF1-dependent EGFP synthesis, stress inducer alone (FIG. 10D) (HSF1 [1]): HSF1-dependent EGFP synthesis was induced; antitumor effect as single agent, MCA205 (FIG. 13D) (MCA205 fibrosarcoma): minor antitumor effects; antitumor effect as single agent, B-16 (FIG. 13E) (B-16 melanoma): minor antitumor effects; hsp70 synthesis in tumors in vivo, 17-DMAG alone (FIG. 13C) (MCA205 tumors): induced hsp70 synthesis
2 | CO/C1=C\C(C)=C\[C@@H](C)[C@@H](O)[C@@H](C)C/C(C)=C/C=C/[C@H](OC)[C@@H]([C@@H](C)[C@@H](O)[C@H](C)[C@@]2(O)C[C@@H](O)[C@H](C)[C@@H](C(C)C)O2)OC1=O [Bafilomycin] |  |  |  | effect of bafilomycin on efficacy of QC as HSR inhibitor (FIG. 11D) (hsp70 (inducible form)): increased the efficacy of QC as an HSR inhibitor
3 | CC(C)C[C@@H](C=O)NC(=O)[C@H](CC(C)C)NC(=O)[C@H](CC(C)C)NC(=O)OCc1ccccc1 [MG132] (Cbz-Leu-Leu-Leu-aldehyde) |  | led to activation of specific HSF1 DNA binding activity |  | 
4 | COC(=O)C[C@H](NC(=O)[C@H](C)NC(=O)[C@@H](NC(=O)OCc1ccccc1)C(C)C)C(=O)CF [ZVAD-FMK] (Cbz-Val-Ala-Asp(OMe)-CH2F) |  |  |  | effect of caspase inhibitor on cleavage induced by the combinations (FIG. 12E) (HeLa cells [2]; overnight, 20 μM ZVAD-FMK with 20 μM QC and 17-DMAG or bortezomib): blocked this effect completely
5 | CC(C)C[C@H](NC(=O)[C@H](Cc1ccccc1)NC(=O)c1cnccn1)B(O)O [bortezomib] | barely detectable |  | practically non-toxic | 

Peptide text beside a SMILES is read from it. * marks the point of attachment. Cbz = O=C(OCc1ccccc1)*; CH2F = FC*
